In the supplement of paper PMC5655136:
These are enrichments in a pooled selection; single values are uncertain.

Tested on: NB7
Test: fold depletion of shRNA, plasmid library share / infected cells without Dox share (9 days) (ratio); higher = more depleted after infection (more toxic, leaky expression from a Tet-inducible vector; NB7 is a neuroblastoma line without caspase-8)
[1] = shRNA pool: CD95L ORF + CD95L 3'UTR + Venus libraries
[2] = shRNA pool: CD95 ORF + CD95 3'UTR + Venus libraries
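Further: shRNA barcodes quantified by deep sequencing of PCR amplicons from cellular DNA, counts expressed as percent of each subpool, ratio averaged over two biological duplicates.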

Row | Sequence | fold depletion of shRNA [1] | fold depletion of shRNA [2]
1 | CATCTTCACTTCTAAATGCAT | 1.3 | 
2 | CATCTTCTTCAAGGACGACGG | 1.16 | 0.929
3 | CATCTTTGGAGAAGCAAATAG | 0.627 | 
4 | CATGAAAAAGCAGCTACCAGG | 0.389 | 
5 | CATGAACCAAGTGGACCTTGA | 2.7 | 
6 | CATGAACCCATGTTTGCAATC |  | 3.16
7 | CATGAAGCAGCACGACTTCTT | 0.798 | 1.22
8 | CATGAATCTCCAACTTTAAAT |  | 0.587
9 | CATGACACTAAGTCAAGTTAA |  | 0.694
10 | CATGAGGAACTCTAAGTATCC | 0.856 | 
11 | CATGATTCTGCCTCCAAGGAT |  | 4.73
12 | CATGCAGAAAGCACAGAAAGG |  | 2.05
13 | CATGCCCGAAGGCTACGTCCA | 0.911 | 0.821
14 | CATGCCTCTGGAATGGGAAGA | 0.751 | 
15 | CATGCTAAGTACCCAAATAGG |  | 0.206
16 | CATGGAAAGAAAGAAGCGTAT |  | 0.571
17 | CATGGAAATATCACCAAAAAA |  | 0.809
18 | CATGGAATCATCAAGGAATGC |  | 0.776
19 | CATGGACGAGCTGTACAAGTA | 1.02 | 0.865
20 | CATGGCTTAGAAGTGGAAATA |  | 0.999
21 | CATGGTCCTGCTGGAGTTCGT | 0.745 | 0.817
22 | CATGGTTCTGGTTGCCTTGGT | 1.53 | 
23 | CATGGTTGTGACCTGAGGATT | 0.629 | 
24 | CATGTAAAACCTGCTACAAAT |  | 1.43
25 | CATGTAATAAAAAGTATATGT | 0.502 | 

Row | Sequence | fold depletion of shRNA [1] | fold depletion of shRNA [2]
26 | CATGTCATGAACCCATGTTTG |  | 1.42
27 | CATGTGAAGAGGGAGAAGCAT | 3.79 | 
28 | CATGTGTATTTCCAGTGCAAT | 1.43 | 
29 | CATGTTTGCAATCAAAGATGA |  | 0.81
30 | CATTAAATTATAATGTTTGAC |  | 1.07
31 | CATTACTAGTGACTCAGAAAA |  | 0.543
32 | CATTATGATTCTTTGTTACAG | 0.57 | 
33 | CATTCCTAACACAGCATGTGT | 1.59 | 
34 | CATTGATTAAAGATCTCAAAA |  | 0.708
35 | CATTGATTGTCAGCTACTAAT | 0.587 | 
36 | CATTTAACAGGCAAGTCCAAC | 0.739 | 
37 | CATTTATATGTCAACGTATCT | 0.382 | 
38 | CATTTATGGAGGATTTTTTTG |  | 1.25
39 | CATTTATTAGCGCTGAAGAGC |  | 1.19
40 | CATTTCATTCCTAACACAGCA | 1.25 | 
41 | CATTTGAGGTCAAGTAAGAAG | 1.02 | 
42 | CATTTGGTCAAGATTTTGAAT | 1.54 | 
43 | CATTTTACTGGCTCAAAACTA |  | 1.16
44 | CATTTTATCATTTATTAGCGC |  | 1.18
45 | CATTTTGAGCAGGAGAGTATT |  | 1.29
46 | CATTTTTCTTCCAAATGCAGA |  | 0.905
47 | CATTTTTGCCTTGGTGCTCAT |  | 0.961
48 | CATTTTTGTGAAATGAAAACA | 0.7 | 
49 | CCAAAAAATACTTAATAGTCC |  | 0.721
50 | CCAAAAGTGTTAATGCCCAAG |  | 1.13

Row | Sequence | fold depletion of shRNA [1] | fold depletion of shRNA [2]
51 | CCAAAATAGATGAGATCAAGA |  | 0.856
52 | CCAAACATGGAAATATCACCA |  | 1.71
53 | CCAAACTTTTTTTGTAACTCT |  | 1.22
54 | CCAAAGTATACTTCCGGGGTC | 3.32 | 
55 | CCAAATAGGAGTGTATGCAGA |  | 1.84
56 | CCAAATGTGAACATGGAATCA |  | 0.526
57 | CCAACATATTTGTAGATTTTT |  | 1.31
58 | CCAACGAGAAGCGCGATCACA | 0.988 | 1.59
59 | CCAACTTCAAGATCCGCCACA | 2.39 | 1.29
60 | CCAACTTTAAATCCTGAAACA |  | 1.78
61 | CCAAGAAGGGAAGGAGTACAC |  | 1.65
62 | CCAAGACACAGCAGAACAGAA |  | 1.97
63 | CCAAGGATGTTTAAAATCTAG |  | 0.77
64 | CCAAGGGATTGGAATTGAGGA |  | 0.543
65 | CCAAGGTTCTCATGAATCTCC |  | 2.14
66 | CCAAGTGCAAAGAGGAAGGAT |  | 2.07
67 | CCAAGTGCAGATGTAAACCAA |  | 1.58
68 | CCAAGTGGACCTTGAGACCAC | 1.35 | 
69 | CCAAGTTTCTAAGATTTAAGA |  | 0.942
70 | CCAATCTTTGTACTCTTGCAG |  | 0.344
71 | CCAATGCCCCACTGGCAGCAT | 2.34 | 
72 | CCAATTCCACTAATTGTTTGG |  | 0.818
73 | CCACAACATCGAGGACGGCGG | 0.637 | 1.18
74 | CCACAACGTCTATATCACCGC | 2.32 | 1.68
75 | CCACAAGGTCTACATGAGGAA | 1.49 | 
